Measurements taken from paper PMC2666074 (Biochemistry, 2008).

Target: S100A6 (rabbit, intact) (rabbit, UniProt P30801)
Assay: ITC

B1: SIP M207A (full length) (natural protein)
chain: not shown
fold reduction in binding affinity against wild-type SIP: > 10 fold
